Results on 88 compounds are retold here after PubChem BioAssay AID463173 (ICCB-Longwood Screening Facility, Harvard Medical School, 2010).

The whole screen tested about 52,000 compounds, of which about 4,300 (8.3%) were called active. Rule as the data show it: active = survival mostly below about 52% (no sharp cut-off); inactive = mostly above about 56%. The list shows a part of the results.

The subject of this assay is DeltatarO mutant. The experiment in a line: growth inhibition of S. aureus wild type versus tarO mutant, primary screen, teichoic acid synthesis inhibitors, RN4220, OD600 (AID 463173). The following applies: OD600, 18 h, active compounds read low, screened at 18.75 µg/mL (by protocol).
For `Cn1c(=O)c2c(SCC(=O)N3CCc4ccccc43)nc(-c3ccc(Cl)cc3)nc2n(C)c1=O`, the survival was inactive: 113%.
Consider `Cc1ccc(NC(=O)C2CCCN2S(=O)(=O)c2ccc3c(c2)n(C)c(=O)c(=O)n3C)cc1C` (stereo not drawn), for which the survival was inactive: 115%.
Consider `O=C1N(Cc2ccccc2)c2ccccc2C1(O)c1c[nH]c2ccccc12` (stereo not drawn), for which the survival is inactive: 55%.
As for `CCCCn1c(=N)n(CCOc2ccccc2OC)c2ccccc21`, the figure is inactive: 56%; as for `CC(=O)OC1OCCOC1NC(=S)Nc1ccc(C)cc1` (stereo not drawn), inactive: 106%; as for `CC(C)Oc1ccc(CNC(=O)Cn2nc(N3CCN(c4ccccc4)CC3)ccc2=O)cc1`, inactive: 86%.
In the case of `Cn1cc(S(=O)(=O)N2CCOCC2)cc1C(=O)Nc1cccc(C#N)c1`, the survival was inactive: 87%.
Under `CC(C)c1ccc(CNc2n[nH]c(-c3ccco3)n2)cc1` stands inactive: 80%.
As to `COCCNC(=O)C1=CC(c2ccc3c(c2)OCO3)=NS(=O)(=O)N1C`, the survival was inactive: 103%.
Under `COc1ccc(C2c3c(n(C)c4ccccc34)C(=O)N2CC(=O)Nc2ccc(F)cc2)cc1` (stereo not drawn) stands inactive: 91%; under `Cc1ccc(CSc2nc(-c3ccccc3C)nc3c2Cc2c(CO)cnc(C)c2O3)cc1`, inactive: 58%.
Consider `CCOc1ccc(-c2nc(SCC(=O)Nc3cc(F)ccc3F)n3[nH]c(=O)cc3n2)cc1`, for which the survival is inactive: 91%.
On to `CCC1CN(C(=O)NCc2ccc(C)cc2)c2cc(C)ccc2O1` (stereo not drawn), for which the survival is inactive: 54%.
On to `O=S(=O)(NCc1ccccc1)c1cccs1`, for which the survival was inactive: 109%.
Turning to `COc1ccc(C(=O)N(CC(=O)NC2CCCC2)Cc2ccc3c(c2)OCO3)cc1OC`, the survival is inactive: 60%.
As to `Cc1nn(S(=O)(=O)c2ccc(C(C)C)cc2)c(C)c1S(=O)(=O)N1CCCCCC1`, the survival was inactive: 84%.
As to `CCCCCn1c(=O)[nH]c2cc(C(=O)Nc3cc(OC)cc(OC)c3)ccc2c1=O`, the survival is inactive: 76%.
Consider `Cc1cccc(CNC(=O)C2CCCN(S(=O)(=O)c3cn(C)cn3)C2)c1` (stereo not drawn), for which the survival is inactive: 92%.
As to `COc1ccccc1CNC(=O)CCn1c(=O)c2ccccc2n(CC(=O)Nc2ccc(C)cc2)c1=O`, the survival was inactive: 92%.
On to `Cn1nnnc1SCCCNCc1ccc(-c2ccc(Br)cc2)o1`, for which the survival was active: 32%.
For `NNC1=NC2CS(=O)(=O)CC2S1` (stereo not drawn), the survival was inactive: 56%.
Regarding `Cc1ccc2oc(=O)c3cc(C(=O)N4CCN(c5ccccc5)CC4)sc3c2c1`, the survival is inactive: 65%.
Regarding `COC(=O)c1cc2oc3ccccc3c2n1Cc1cccc(C)c1`, the survival was active: 31%.
Consider `CN(C)S(=O)(=O)c1ccc2c(c1)N(CC(=O)NCc1ccccc1)C(=O)C1CCCCN21` (stereo not drawn), for which the survival is inactive: 67%.
As for `S=C(NCc1ccco1)NC1CCCCC1`, the figure is inactive: 97%.
Take `Cc1ccccc1CCNC(=O)c1ccc2c(c1)c(C)c(C)n2C`: the survival is inactive: 71%.
`Cc1ccc(C)c(N2CCN(C(=O)c3cc4ccc5cccnc5c4[nH]3)CC2)c1`: the survival was inactive: 95%.
As to `Cc1cc(C)cc(NC(=O)CN2C(=O)CSc3ccc(S(=O)(=O)N(C)C)cc32)c1`, the survival was inactive: 75%.
For the compound `CCOC(=O)c1c(C)oc2ncnc(Nc3ccc(F)cc3Cl)c12`, the survival is inactive: 113%.
Take `O=S1(=O)N=C(NNS(=O)(=O)c2ccccc2)c2ccccc21`: the survival is inactive: 103%.
Regarding `COc1ccc(-c2nsc(NC(=O)COc3ccc(C)c(C)c3)n2)cc1`, the survival is inactive: 65%.
For the compound `CCc1ccccc1NC(=O)C1(S(=O)(=O)c2ccc(Cl)cc2)CC1`, the survival was active: 90%.
As for `O=C(NC1CC(=O)N(c2ccc(F)cc2)C1)c1cccs1` (stereo not drawn), the survival was inactive: 86%.
As for `Cc1ccc(C)c2[nH]c(=O)c(C(c3nnnn3Cc3ccccc3)N3CCN(C)CC3)cc12` (stereo not drawn), the survival is inactive: 91%.
Turning to `Cc1ccn2c(Nc3ccc(F)cc3)c(-c3ccc(C)o3)nc2c1`, the survival is inactive: 99%.
On to `Cc1ccc2cc(C#N)c(NCc3ccccc3)nc2c1`, for which the survival was inactive: 99%.
For the compound `COc1ccc(CNC(=O)C2CCN(c3nc4ccccc4[nH]3)CC2)c(OC)c1`, the survival is inactive: 124%.
Turning to `CC(=O)N(Cc1cc2cc(C)c(C)cc2n2nnnc12)CC1COCCO1` (stereo not drawn), the survival was inactive: 92%.
Consider `COc1cc(CN(C(=O)COc2ccc(Br)cc2)c2ccccn2)cc(OC)c1OC`, for which the survival was inactive: 60%.
`COc1ccc(-c2oc3ncn4nc(-c5cccc(C)c5)nc4c3c2-c2ccc(OC)cc2)cc1`: the survival was inactive: 72%.
In the case of `Cc1ccc(CN2C(=O)c3ccccc3Sc3ccc(C(=O)NC4CCCCC4)cc32)cc1`, the survival is inactive: 100%.
`COc1cc(C(=O)Nc2nnc(S(=O)(=O)N(C)c3ccccc3)s2)cc(OC)c1OC`: the survival was active: 40%.
For the compound `COc1ccccc1CNC(=O)CS(=O)(=O)c1cccc2nsnc12`, the survival is inactive: 68%.
As to `COc1cc(C(=O)NCC(c2ccc(N(C)C)cc2)N2CCc3ccccc32)cc(OC)c1OC` (stereo not drawn), the survival was inactive: 101%.
Consider `Cc1ccc(-c2nc3n(n2)C(c2ccccc2C)C=C(c2ccc(Cl)cc2)N3)cc1` (stereo not drawn), for which the survival was inactive: 126%.
On to `COc1ccc(OC)c(NC(=O)CCn2cnnn2)c1`, for which the survival was inactive: 80%.
In the case of `COc1ccc(CCNC(=O)c2cc(-c3ccc(C)cc3)nc3n[nH]c(-c4ccccc4)c23)cc1OC`, the survival was inactive: 107%.
As for `COc1ccc(CNC(=O)c2cc3c(=O)[nH]c4ccc(C)cc4c3s2)c(OC)c1`, the figure is active: 44%; as for `O=c1oc(-c2cccc3ncccc23)nn1Cc1ccccc1F`, inactive: 102%.
Consider `O=C(O)CCN(C(=O)C1C2C=CC(C2)C1C(=O)O)c1ccccc1` (stereo not drawn), for which the survival was inactive: 67%.
For `CCCSc1nc2sc3c(c2c(=O)n1-c1ccccc1)CCC(C)C3` (stereo not drawn), the survival is active: 2%.
For the compound `Cc1cc(NC(=O)CSc2nc(-c3ccccc3F)nc3c2c(=O)n(C)c(=O)n3C)no1`, the survival is inactive: 86%.
With `COC(=O)c1cccc(NC(=O)C2CCN(S(=O)(=O)Cc3ccccc3)CC2)c1C`, the survival is inactive: 77%.
For the compound `CCCCOc1ccc(OC(=O)c2sc3ncn(Cc4cccc(F)c4)c(=O)c3c2C)cc1`, the survival was inactive: 83%.
In the case of `COc1cc2nc(SCc3ccc(Cl)cc3)n3nc(CCn4nc(C)cc4C)nc3c2cc1OC`, the survival was inactive: 86%.
As for `Cc1nn(C(=O)c2ccc(Cl)cc2)c(C)c1Sc1ccc(Cl)cc1`, the survival is active: 51%.
With `CC(=O)c1sc2c(c1C)c(=O)n(-c1ccc(Cl)cc1)c(=O)n2Cc1cc(=O)n2cc(Cl)ccc2n1`, the survival was inactive: 58%.
For the compound `O=C(Nc1ccc(Br)cc1)c1ccc2c3c(onc13)-c1ccccc1C2=O`, the survival was inactive: 72%.
`COc1ccc2oc(=O)c(-c3csc(/C(C#N)=C/c4ccc(F)cc4)n3)cc2c1`: the survival was inactive: 76%.
As for `COC(=O)C1=C(CN(C)CCc2ccc(OC)c(OC)c2)NC(=O)NC1c1cccc(OC)c1` (stereo not drawn), the survival was inactive: 80%.
As for `CCOc1ccc(NC(=O)Cn2c(=O)n(-c3ccc(C)cc3)c(=O)c3cc(OC)c(OC)cc32)cc1`, the figure is inactive: 92%; as for `COc1ccccc1N1CCN(C(=O)C2CCN(S(=O)(=O)c3cnc[nH]3)CC2)CC1`, inactive: 99%.
On to `CCOC(=O)c1c(NC(C)=O)c2c3c(sc2n1Cc1nc(-c2ccccc2OCC)oc1C)CCCC3`, for which the survival is inactive: 79%.
In the case of `CCCCCn1nc(C)c(/C=N\NC(=O)c2cccs2)c1C`, the survival was inactive: 69%.
On to `COc1cccc(NC(=O)Cn2cc(C(=O)C3CCCCC3)c3ccccc32)c1`, for which the survival is inactive: 79%.
For `Cc1ccc(C)c(N2CCN(C(=O)c3cnc4c(-c5ccccc5)c(C)nn4c3C)CC2)c1`, the survival is inactive: 89%.
As for `Cc1ccc(/C=C(\C#N)C(=O)Nc2cc(C)ccc2C)cc1`, the figure is inactive: 64%; as for `COc1cc(C)c(Cl)cc1S(=O)(=O)NCCc1c(C)[nH]c2ccccc12`, active: 37%.
For the compound `Cc1ccc(C)c(CN2C(=O)c3ccccc3S(=O)c3ccc(C(=O)NCc4ccccc4Cl)cc32)c1` (stereo not drawn), the survival was inactive: 122%.
Take `COc1cccc(CNC(=O)CN2C(=O)N(c3cc(C)ccc3C)S(=O)(=O)c3ccccc32)c1OC`: the survival is inactive: 73%.
Consider `COc1cccc(NC(=O)c2sc3nc(N4CCOCC4)c4c(c3c2N)CC(C)(C)OC4)c1`, for which the survival was inactive: 96%.
Under `Cc1cccc(NC(=O)NCCn2c(=O)oc3ccc(C)cc32)c1` stands inactive: 71%; under `CCC(C)(C)n1nnnc1CN(Cc1ccc(Cl)cc1)CC1CCCO1` (stereo not drawn), inactive: 76%; under `CCN(CC)CCC(=O)N1c2ccccc2CCc2ccc(NC(=O)OC(C)C)cc21`, inactive: 84%.
With `Cc1oc2c(c1C(=O)NCc1cccc(Br)c1)C1=NCCN1C=N2`, the survival is inactive: 97%.
For `COc1cc(NC(=O)C(CC(C)C)NS(=O)(=O)c2ccc3c(c2)CCCC(=O)N3)cc(OC)c1` (stereo not drawn), the survival is inactive: 67%.
Consider `Cc1ccc(CNC(=O)CCCn2c(=O)c3ccccc3n(CC(=O)C(C)(C)C)c2=O)cc1`, for which the survival is inactive: 89%.
As for `CCOC(=O)Cn1c(=O)n(CC2CCCO2)c2nc(-c3ccc(OC)cc3OC)nc(C(N)=O)c21` (stereo not drawn), the figure is inactive: 76%; as for `O=C(CC1N=C2c3ccccc3N=C(SCc3ccc(Cl)cc3)N2C1=O)NCCc1ccccc1` (stereo not drawn), inactive: 73%.
As to `CCOC(=O)c1c(C)[nH]c(C)c1S(=O)(=O)NCC(=O)Nc1cccc(C(F)(F)F)c1`, the survival is inactive: 88%.
As for `CC1CCCN(C(=O)Cn2c(=O)oc3cc(S(=O)(=O)N4CCCCC4)ccc32)C1` (stereo not drawn), the survival was inactive: 83%.
Turning to `CCOc1ccc(C2c3c(-c4ccc(C)cc4)n[nH]c3C(=O)N2c2ccc(Cl)cc2)cc1` (stereo not drawn), the survival was inactive: 91%.
Consider `CCOC(=O)c1c(NC(=O)c2cc(CC)on2)sc(C)c1C`, for which the survival was inactive: 144%.
Take `O=C(Nc1ccc(-c2cc(C(F)(F)F)nn2-c2ccccc2)cc1)c1cccc(F)c1`: the survival was active: 26%.
Take `CCN1CCC(N(Cc2cccc(OC)c2)C(=O)Nc2cccc(C(F)(F)F)c2)CC1`: the survival is inactive: 102%.
`CCN(CC)c1ccc(C(=O)NCc2ccc3c(c2)CCN3C(=O)c2ccccc2)cc1`: the survival was inactive: 83%.
As for `Cc1ccc2c(c1)N(C(=O)CCC(=O)Nc1ccccc1Cl)CC(C)O2` (stereo not drawn), the figure is inactive: 105%; as for `O=c1cc(CSc2ncn[nH]2)[nH]c2c(Cl)cccc12`, inactive: 98%.
